# Reference: PubChem BioAssay AID588855 (National Center for Advancing Translational Sciences (NCATS), 2011)
# Several values for one entry are separate records, joined by “and”; a condition that tells them apart may be missing. Identical values can stand only once. The whole screen tested about 410,000 compounds, of which about 5,000 (1.2%) were called active. The inconclusive results got no clear call from the source; some entries with a clear call stand among them for comparison. Calls come from the whole dose curve; as a rule, active = well fitted inhibition curve with a large enough effect; inconclusive = small, poorly fitted or top-dose-only effect; inactive = no such curve, though single readings can be large or run the other way. Potencies of inconclusive entries are doubtful fits and often do not repeat.
# Assay: qHTS for Inhibitors of TGF-b; note: nearly all actives have a fitted effect of over 65% in size
# Settings: HepG2 CAGA-GFP TGF-b/SMAD3 reporter, GFP fluorescence, 18 h, TGF-beta stimulated, 500 pg/mL final; series mostly up to 46.1 µM
# Procedure, shortened: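 HEPG2 CAGA-GFP reporter cells (1000/well, DMEM with 1% FBS) received compounds, then recombinant TGF-beta at 500 pg/mL final for 18 hours at 37 degrees C. Per-cell GFP summed per well was normalised to unstimulated and stimulated DMSO controls before curve fitting.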
# Potency is the fitted concentration of half-maximal effect; tags give direction and shape of the fitted curve.
row,SMILES,Potency
1,NC(=O)c1cc2ccccc2o/c1=N\NC(=O)c1ccco1,inactive
2,O=[N+]([O-])c1ccc(NC(=S)N2CCN(c3ccccn3)CC2)cc1,"inconclusive: 15.8 µM [inhibitor, single point]"
3,CC(/C=C1\SC(=O)N(CC(=O)Nc2ccc(O)cc2)C1=O)=C\c1ccccc1,"inconclusive: 20 µM [inhibitor, single point]"
4,CCCc1nc2c3ccccc3ccn2c1Cc1cccc(F)c1,"inconclusive: 17.8 µM [inhibitor, single point]"
5,COc1ccc(-c2nnc(-c3ccc(C)cc3)o2)cc1,inactive
6,COCCOC(=O)c1[nH]c2c(c1C)C(=O)CC(c1ccc(OC)c(OC)c1)C2 (configuration not stated),inactive
7,Cc1nc2ccc(N=NC3=C(O)CC(C)(C)CC3=O)cc2s1,"inconclusive: 3.55 µM [inhibitor, single point]"
8,Cc1ccc2c(c1)N(CC(=O)NC1CCC(C)CC1)C(=O)c1cccnc1O2 (configuration not stated),"inconclusive: 2.82 µM [inhibitor, partial curve, poor fit]"
9,CN(Cc1ccccc1)C(=O)c1cccc(NC(=O)Cc2ccc(NC(=O)C3CCCN(C(=O)C4CC4)C3)cc2)c1 (configuration not stated),inactive
10,CCCCC(=O)O[C@H]1CC[C@H]2[C@@H]3CCc4cc(O)ccc4[C@H]3CC[C@]12C,inactive
11,COc1ccccc1Cc1c(C2CCCCC2)nc2ccc(Br)cn12,"inconclusive: 15.8 µM [inhibitor, single point]"
12,CCc1ccc(NC(=O)C2CCCN(S(=O)(=O)c3cnc[nH]3)C2)cc1 (configuration not stated),"inconclusive: 2.82 µM [inhibitor, partial curve, poor fit]"
13,CCCOc1ccc(C2C(=O)N(C3CCCCC3)CC(=O)N2CCC)cc1OC (configuration not stated),inactive
14,O=C1C=CC(=O)N1c1ccc(OC(F)F)cc1,"inconclusive: 35.5 µM [inhibitor, single point]"
15,O=C(O)c1cc(O)c2c(c1)C(=O)c1cccc(O)c1C2=O,"inconclusive: 15.8 µM [inhibitor, single point]"
16,COc1cc(CN2CCC(n3nccc3NC(=O)CCCc3ccccc3)CC2)ccc1F,"inconclusive: 3.98 µM [inhibitor, partial curve, poor fit]"
17,CC(C)(C)c1cc(/C=C2\NC(=O)NC2=O)cc(C(C)(C)C)c1O,"inconclusive: 35.5 µM [inhibitor, single point]"
18,O=C(Nc1ccncc1)C1COc2ccccc2O1 (configuration not stated),inactive
19,CCOc1ccc(S(=O)(=O)N2CCc3ccccc3C2)cc1,"inconclusive: 17.8 µM [inhibitor, single point]"
20,Nc1ccccc1-n1cccc1,inactive
21,CC1=C(C(=O)N(C(C)C)C(C)C)CC(CC(=O)NCc2cccc3ccccc23)C(=O)N1Cc1ccc(C(C)(C)C)cc1 (configuration not stated),active: 7.94 µM
22,Fc1ccc(-c2csc(-c3ccccn3)n2)cc1F,"inconclusive: 1.12 µM [inhibitor, full curve, poor fit]"
23,O=C(NC(c1ccc(-c2ccccc2)cc1)c1cnccn1)C1CCN(CCCOc2ccccc2)CC1 (configuration not stated),"inconclusive: 25.1 µM [inhibitor, single point]"

row,SMILES,Potency
1,CCN1c2ccccc2-c2nc(SCC(=O)Nc3c(C)cc(C)cc3C)ncc2S1(=O)=O,inactive
2,CN(C)C(=O)c1cccc(-c2cccc3nccn23)c1,inactive
3,CCOc1ccc(NS(=O)(=O)c2ccc3[nH]cc(C(=O)NC4CCCC4)c(=O)c3c2)cc1,"inconclusive: 12.6 µM [inhibitor, partial curve]"
4,CCOc1ccc(C(=O)c2cn(Cc3ccc(OC)cc3)c3cc(OC)c(OC)cc3c2=O)cc1,"inconclusive: 3.55 µM [inhibitor, partial curve, poor fit]"
5,Cc1cc(C)c(S(=O)(=O)N2CCOC2CNC(=O)C(=O)NCCCn2ccnc2)c(C)c1 (configuration not stated),inactive
6,CC1CC(C)CN(C(=O)CSc2nc(Cc3cccs3)nc3ccccc23)C1 (configuration not stated),"inconclusive: 35.5 µM [inhibitor, single point]"
7,CCc1cccc(NC(c2nnc(-c3ccccc3)o2)c2ccc(F)cc2Cl)c1 (configuration not stated),"inconclusive: 14.1 µM [inhibitor, single point]"
8,Cc1ccc(NC(=O)NCC2CCN(Cc3cccc(Cl)c3)CC2)cc1Cl,"inconclusive: 22.4 µM [inhibitor, partial curve, poor fit] and inconclusive: 35.5 µM [inhibitor, single point]"
9,Cc1cccc(-n2c(N)c(C(=O)NCCN3CCOCC3)c3nc4ccccc4nc32)c1,"inconclusive: 12.6 µM [inhibitor, single point]"
10,CC(C)CCN(C(=S)Nc1cccc(C(F)(F)F)c1)C(C)c1ccccn1 (configuration not stated),"inconclusive: 17.8 µM [inhibitor, single point]"
11,O=C(Nc1ncc([N+](=O)[O-])s1)c1cccc([N+](=O)[O-])c1,"inconclusive: 3.55 µM [inhibitor, partial curve, poor fit]"
12,CCC(C)Nc1nc(C)nc2c1oc1ccccc12 (configuration not stated),"inconclusive: 10 µM [inhibitor, single point]"
13,CN(C(=O)c1cccc(NC(=O)Cc2ccc(NC(=O)C3CCN(C(=O)CCc4ccccc4)CC3)cc2)c1)C1CC1,"inconclusive: 35.5 µM [inhibitor, single point]"
14,CCCC(=O)N1CCC1(C)C(=O)NS(=O)(=O)c1cc(C)ccc1F (configuration not stated),inactive
15,Cc1ccc(-n2cc(CNCCN3CCOC3=O)c(-c3cccc(C)c3)n2)cc1,"inconclusive: 15.8 µM [inhibitor, single point]"
16,Nc1cc[n+](CC(=O)c2ccccc2)cc1,"inconclusive: 35.5 µM [inhibitor, single point]"
17,COc1ccc(OCC(O)CN2CCC(CN3C(=O)c4cccc5cccc(c45)C3=O)CC2)cc1 (configuration not stated),"inconclusive: 15.8 µM [inhibitor, single point]"
18,Cc1ccc(C)c(Cn2c(SCC(=O)N(C)Cc3ccccc3)nc3ccccc32)c1,"inconclusive: 22.4 µM [inhibitor, single point]"
19,CN(C(=O)CSc1nc2ccc(NC(=O)CCc3ccccc3)cc2s1)c1ccccc1,"inconclusive: 22.4 µM [inhibitor, single point]"
20,COc1ccc(C2OC(=O)CC2C(=O)NC2CCCCCC2)cc1OC (configuration not stated),inactive
21,CCN1CCCC(Sc2nc3c([nH]2)c(=S)n(C)c(=O)n3C)C1 (configuration not stated),"inconclusive: 17.8 µM [inhibitor, partial curve, poor fit]"
22,Cc1c(NS(=O)(=O)c2ccc([N+](=O)[O-])cc2)c(=O)n(-c2ccccc2)n1C,"inconclusive: 6.31 µM [inhibitor, single point]"
23,CCOC(=O)N1CCN(S(=O)(=O)c2ccc(C)c([N+](=O)[O-])c2)CC1,inactive

row,SMILES,Potency
1,CCCNC(=O)c1nnsc1S(=O)c1ccc(Cl)cc1 (configuration not stated),"inconclusive: 35.5 µM [inhibitor, partial curve, poor fit]"
2,CCc1ccccc1NC(=O)C(=O)NCC(c1cccnc1)N1CCc2ccccc21 (configuration not stated),"inconclusive: 10 µM [inhibitor, single point]"
3,Cc1ccccc1-n1nnc2c(=O)oc3ccccc3c21,"inconclusive: 35.5 µM [inhibitor, single point]"
4,CCOC(=O)c1cc2cc([N+](=O)[O-])ccc2oc1=O,inactive
5,Cc1ccc2c(C)c(C(=O)N3CCC(C(N)=O)(N4CCCCC4)CC3)oc2c1C,"inconclusive: 15.8 µM [inhibitor, single point]"
6,COC(=O)C1=C(C)N(Cc2ccccc2)C(=NCCc2c[nH]c3ccccc23)N[C@H]1c1ccccc1,"inconclusive: 11.2 µM [inhibitor, partial curve, poor fit]"
7,CCCCNC(=O)CCn1c(=O)c2cccn2c2ccc(F)cc21,inactive
8,CCOC(=O)C1(Cc2ccccc2C)CCCN(C(=O)c2cc(CC)nn2C)C1 (configuration not stated),"inconclusive: 22.4 µM [inhibitor, single point]"
9,COc1ccc(C2/C=C\CN(C(=O)C3CC3)C(C)C(=O)N2Cc2ccc(F)cc2)cc1 (configuration not stated),"inconclusive: 35.5 µM [inhibitor, partial curve, poor fit]"
10,COc1ccccc1C(CNC(=O)c1ccc(C)c(S(=O)(=O)N2CCCCC2)c1)N1CCCC1 (configuration not stated),inactive
11,Cc1ccc(S(=O)(=O)N2CCC(=O)N(C(COCc3cccc(C)c3)Cc3ccccc3)CC2)cc1 (configuration not stated),inactive
12,Cc1cccc(CCN2C(N(C)C)=NC[C@@H]2CC(C)C)c1,inactive
13,CCOc1ccccc1NC(=O)CSc1ncc(S(=O)(=O)c2ccc(C(C)(C)C)cc2)c(=O)[nH]1,"inconclusive: 12.6 µM [inhibitor, partial curve, poor fit]"
14,COC(=O)c1ccc(CN(c2ccc(OC)cc2)S(=O)(=O)c2ccccc2)cc1,inactive
15,CCO[C@H]1OC(C(N)=O)=C[C@@H](c2csc3ccccc23)[C@@H]1CCCO,inactive
16,Cc1cc(=O)[nH]c(SCC(=O)Nc2ccc(Br)cn2)n1,inactive
17,Cc1ccc(-c2ccc(/C=N/N3C(=O)C4C5C=CC(CC5)C4C3=O)o2)c([N+](=O)[O-])c1 (configuration not stated),"inconclusive: 35.5 µM [inhibitor, partial curve, poor fit]"
18,CCOc1cc(CNCCc2ccc(S(N)(=O)=O)cc2)ccc1OCc1ccc(Cl)cc1,"inconclusive: 31.6 µM [inhibitor, single point]"
19,O=C1CN=C(Nc2cccc(C(F)(F)F)c2)N1C1CCCC1,inactive
20,CCc1nnc(NC(=O)c2cccc(C(=O)Nc3nnc(CC)s3)n2)s1,active: 0.251 µM
21,COC(=O)c1c(-c2ccc(OC)cc2)oc2ccc(-c3cc(OC)c(OC)c(OC)c3)cc12,"inconclusive: 35.5 µM [inhibitor, single point]"
